From PubChem BioAssay (NCATS)
Inconclusive results, whose numbers are uncertain, are shown with a selection of clear calls. For some of these results: Potencies of inconclusive entries are left out as doubtful fits. Calls of active or inactive are those of the source. Unless noted, calls follow the shape of the dose curve; as a rule, active = well fitted curve in the direction sought with a large enough effect; inconclusive = small, poorly fitted or top-dose-only effect, or another doubt; inactive = no such curve, though single readings can be large; an effect the other way counts as inactive or inconclusive.

Experiments:
[1] = AP1 Signaling Pathway (AID 357; active = well fitted curve in either direction with a large enough effect, not every such curve was filed as active; inconclusive = small, poorly fitted or top-dose-only effect, or another doubt;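 also: ME-180 reporter cells stimulated with EGF at its EC50 level; top concentration of the series differs between compounds; % is scaled to controls: 0 for no effect and ±100 for the full control effect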); conditions: ME-180 AP-1-bla reporter, EGF-induced, beta-lactamase ratio, 5 h; at 7.69 µM (top of the series) unless noted
Summary of the method: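 Cells are seeded overnight, exposed to compound titrations and an EC50 level of EGF for 5 hours at 37 °C, then loaded with CCF4 dye for 2.5 hours. Beta-lactamase activity under the AP-1 element is read as a blue/green ratio.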

[2] = molecular target: Glucocorticoid receptor (Homo sapiens) (UniProt P04150); assay: GR-EFC Redistribution (AID 451; calls by dose curve; also: potency is read from the fitted curve at half-maximal effect); conditions: CHO-K1 GR-EFC translocation, beta-gal luminescence, 2 h
Summary of the method: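 Translocation of GR-ED fusion to nuclear EA restores b-gal, read by luminescence after 1 h room-temperature detection. Engineered CHO-K1 biosensor cells, 1,000/well, exposed 2 h at 37 C to titrations up to 46 uM final.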

[3] = molecular target: Cytochrome P450 3A4 (Homo sapiens) (UniProt P08684); assay: qHTS Assay for Inhibitors and Substrates of Cytochrome P450 3A4 (AID 884); conditions: recombinant CYP3A4, Luciferin-PPXE luminescence; activity change, negative = inhibition: at 57.1 µM (top of the series); also: potency is read from the fitted curve at half-maximal effect; nearly all actives have a fitted effect of over 50% in size
Summary of the method: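 Luminescent readout of luciferin produced by CYP3A4 (20 nM) dealkylation of Luciferin-PPXE, 25 uM (its KM). NADPH-driven reaction ran 60 min at RT after 10 min compound preincubation; data scaled to 57 uM ketoconazole as 100% inhibition.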

[4] = molecular target: Tyrosyl-DNA phosphodiesterase 1 (Homo sapiens) (UniProt Q9NUW8); assay: Confirmation Assay for Inhibitors of Tyrosyl-DNA Phosphodiesterase (TDP1) (AID 489007); conditions: recombinant human TDP1 enzymatic activity, dose-response; also: potency is read from the fitted curve at half-maximal effect; nearly all actives have a fitted effect of over 40% in size
Summary of the method: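 AlphaScreen read-out: streptavidin donor and anti-FITC acceptor beads (10 ug/ml) bind intact substrate, so Tdp1 removal of tyrosine-FITC lowers signal. Enzyme 1 nM, substrate 15 nM, 5 min reaction at room temperature after 15 min compound preincubation.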

[5] = Primary qHTS for small molecule stabilizers of the endoplasmic reticulum resident proteome: Secreted ER Calcium Modulated Protein (SERCaMP) assay (AID 1508630); conditions: SH-SY5Y GLuc-SERCaMP (Gaussia luciferase released on ER calcium loss) secretion, thapsigargin, luminescence; activity change, negative = inhibition: at 38.4 µM (top of the series) unless noted; also: potency is read from the fitted curve at half-maximal effect
Summary of the method: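 The SH-SY5Y reporter protocol was run at 3 concentrations up to 38.3 uM (primary) or 11 concentrations (follow-up): 16 h compound, 100 nM thapsigargin for 4 h, then extracellular luciferase luminescence.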

[6] = molecular target: 3',5'-cyclic-AMP phosphodiesterase 4B (Homo sapiens) (UniProt Q07343); assay: qHTS Assay for Inhibitors of PDE-IV (AID 607; active = well fitted activation curve with a large enough effect in the main read-out, with a control signal flat, not every such curve was filed as active; inconclusive = small, poorly fitted or top-dose-only effect, or effect the other way, or a change in a side signal; also: potency is read from the fitted curve at half-maximal effect; as to activation (PDE inhibition): % of control where 0% means no effect); conditions: HEK293 ACTOne CNG channel cells, membrane potential fluorescence; activation (PDE inhibition): at 22.9 µM (top of the series)
Summary of the method: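 HEK293 ACTOne cells with CNG channel (1000/well), endogenous PDE4; membrane potential dye, compounds up to 22.9 uM final. Fluorescence Ex 535/Em 590; RO 20-1724 (100 uM final) as reference.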

[7] = qHTS Assay for Identification of Small Molecule Agonists for Hypoxia Response Element Signaling Pathway (AID 914; active = well fitted activation curve with a large enough effect in the signal ratio, with a control signal flat, not every such curve was filed as active; inconclusive = small, poorly fitted or top-dose-only effect, or effect the other way, or a change in a side signal; the % refers to the signal ratio; also: top concentration of the series differs between compounds; % of control where 0% means no effect); conditions: ME-180 (cervical carcinoma) HRE-bla reporter, beta-lactamase ratio, CoCl2, 17 h; activation: stronger effect = higher value
Summary of the method: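 Compounds in a titration series were added to ME-180 reporter cells alongside an EC50 level of CoCl2. After 17 hours, beta-lactamase activity was read as the 460nm/530nm emission ratio of CCF4, giving AC50 values.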

[8] = molecular target: Cytochrome P450 1A2 (Homo sapiens) (UniProt P05177); assay: p450-cyp1a2 (AID 410; calls by dose curve; also: potency is read from the fitted curve at half-maximal effect;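 as to activity change, negative = inhibition: top concentration of the series differs between compounds; -100% = full effect of reference inhibitor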)
Summary of the method: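 20nM CYP1A2, 100uM Luciferin-ME (=Km), 100mM KPO4; cpd 10 min RT; +NADPH regen, 60 min RT; stop/detect 20 min; luminescence. Normalized to furafylline 57 uM = full inhibition.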

[9] = molecular target: Mitogen-activated protein kinase 10 (Mus musculus) (UniProt Q61831); assay: JNK3 AlphaScreen Assay (AID 530; active = well fitted curve in either direction with a large enough effect, not every such curve was filed as active; inconclusive = small, poorly fitted or top-dose-only effect, or another doubt;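 also: kinase came from lysate of stimulated human HepG2 cells; signal reports phosphorylation of biotinylated GST-cJun 1-79 at Ser73 with 10 µM ATP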; also: potency is read from the fitted curve at half-maximal effect); conditions: JNK3 lysate, c-Jun phosphorylation; activity change, negative = inhibition: at 57.1 µM (top of the series)
Summary of the method: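 Kinase buffer: 20 mM Tris-HCl pH 7.6, 10 mM MgCl2, 1 mM DTT, 0.1 mM Na3VO4, 0.01% Tween-20; ATP 10 uM. Substrate biotin-GST-cJun(1-79), enzyme from activated HepG2 lysates. Detection by Ser73 phospho-antibody AlphaScreen.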

[10] = qHTS Assay for Identification of Small Molecule Antagonists for NFkB Signaling Pathway (AID 895; active = well fitted inhibition curve with a large enough effect in the signal ratio, with a control signal flat, not every such curve was filed as active; inconclusive = small, poorly fitted or top-dose-only effect, or effect the other way, or a change in a side signal; the % refers to the signal ratio; also: % is scaled to controls: 0 for no effect and ±100 for the full control effect); conditions: NFkB beta-lactamase reporter cells, FRET ratio 460/530, stimulated with 10 pM TNF alpha; activity change, negative = inhibition: at 38.3 µM (top of the series)
Summary of the method: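 Beta-lactamase reporter read-out (460 and 530 nm emission ratio, 405 nm excitation, 2 hrs substrate loading RT) after 5 hr stimulation with 10 pM TNF alpha in compound-treated NFkB-bla ME-180 cells in low-serum medium.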

[11] = qHTS Assay for Identification of Small Molecule Agonists for Thrombopoietin (TPO) Signaling Pathway (AID 917); also: % is scaled to controls: 0 for no effect and ±100 for the full control effect
Summary of the method: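 First, Ba/F3 cells with human TPO receptor were held overnight without IL-3. Next, compounds and TPO (26 pM final) were added. After 24 hrs at 37 C, luciferase detection reagent was added and luminescence measured following 10 min at room temperature.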

[12] = NFAT Signaling Pathway (AID 444; active = well fitted curve in either direction with a large enough effect, not every such curve was filed as active; inconclusive = small, poorly fitted or top-dose-only effect, or another doubt;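 also: carbachol stimulus at about its EC50 of 1 µM final; % is scaled to controls: 0 for no effect and ±100 for the full control effect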); conditions: Jurkat NFAT-bla M1, carbachol, beta-lactamase ratio, 5 h; at 7.69 µM (top of the series) unless noted
Summary of the method: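 Read-out: CCF4 FRET ratio (460 nm/530 nm) after 1 h RT dye loading, used for %activity and AC50 from titration series. Cells: Jurkat NFAT-β-lactamase/M1 line, treated with compound plus 1 uM carbachol for 5 h, 37 °C.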

[13] = molecular target: Cytochrome P450 2C19 (Homo sapiens) (UniProt P33261); assay: qHTS Assay for Inhibitors and Substrates of Cytochrome P450 2C19 (AID 899); also: top concentration of the series differs between compounds; % is scaled to controls: 0 for no effect and ±100 for the full control effect; nearly all actives have a fitted effect of over 60% in size
Summary of the method: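 5nM enzyme + 10uM Luciferin-H EGE (=KM), 50mM KPO4; cpd pin-transferred, 10 min 37C; NADPH regen, 60 min 37C; stopped w/ luciferin detection reagent, 20 min; luminescence. Normalized to 57uM ketoconazole (AC100).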

[14] = molecular target: Ubiquitin carboxyl-terminal hydrolase 1 (Homo sapiens) (UniProt O94782); assay: Inhibitors of USP1/UAF1: Pilot qHTS (AID 504865);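 also: rhodamine fluorescence freed from ubiquitin-rhodamine substrate followed over time; potency is read from the fitted curve at half-maximal effect; nearly all actives have a fitted effect of over 35% in size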
Summary of the method: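 USP1/UAF1 complex (1nM) preincubated with compound 15 min at room temperature, then Ub-Rho substrate (150nM final) added. Fluorescence read kinetically at 480/540 nm, 6 reads every 60 seconds. Buffer: 50mM HEPES pH 7.8, 0.5mM EDTA, 0.1 mg/ml BSA, 1mM TCEP, 0.01% Tween-20.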
Tags tell the direction and shape of the fitted curve.

Sequence of UniProt P05177 (P05177 whole entry, looked up): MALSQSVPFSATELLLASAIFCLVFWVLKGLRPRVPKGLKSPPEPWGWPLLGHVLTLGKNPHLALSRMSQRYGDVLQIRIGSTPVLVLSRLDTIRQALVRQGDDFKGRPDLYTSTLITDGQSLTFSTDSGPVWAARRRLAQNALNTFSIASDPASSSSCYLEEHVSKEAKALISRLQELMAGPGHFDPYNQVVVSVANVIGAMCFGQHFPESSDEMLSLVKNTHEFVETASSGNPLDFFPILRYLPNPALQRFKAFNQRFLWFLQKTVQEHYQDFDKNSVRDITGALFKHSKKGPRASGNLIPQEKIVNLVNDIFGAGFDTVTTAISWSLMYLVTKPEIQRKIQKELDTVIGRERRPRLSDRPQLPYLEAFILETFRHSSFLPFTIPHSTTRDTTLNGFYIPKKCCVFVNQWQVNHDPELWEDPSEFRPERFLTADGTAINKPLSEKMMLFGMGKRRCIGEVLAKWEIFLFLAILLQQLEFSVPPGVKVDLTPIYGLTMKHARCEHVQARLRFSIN
Sequence of UniProt Q07343 (Q07343 whole entry, looked up): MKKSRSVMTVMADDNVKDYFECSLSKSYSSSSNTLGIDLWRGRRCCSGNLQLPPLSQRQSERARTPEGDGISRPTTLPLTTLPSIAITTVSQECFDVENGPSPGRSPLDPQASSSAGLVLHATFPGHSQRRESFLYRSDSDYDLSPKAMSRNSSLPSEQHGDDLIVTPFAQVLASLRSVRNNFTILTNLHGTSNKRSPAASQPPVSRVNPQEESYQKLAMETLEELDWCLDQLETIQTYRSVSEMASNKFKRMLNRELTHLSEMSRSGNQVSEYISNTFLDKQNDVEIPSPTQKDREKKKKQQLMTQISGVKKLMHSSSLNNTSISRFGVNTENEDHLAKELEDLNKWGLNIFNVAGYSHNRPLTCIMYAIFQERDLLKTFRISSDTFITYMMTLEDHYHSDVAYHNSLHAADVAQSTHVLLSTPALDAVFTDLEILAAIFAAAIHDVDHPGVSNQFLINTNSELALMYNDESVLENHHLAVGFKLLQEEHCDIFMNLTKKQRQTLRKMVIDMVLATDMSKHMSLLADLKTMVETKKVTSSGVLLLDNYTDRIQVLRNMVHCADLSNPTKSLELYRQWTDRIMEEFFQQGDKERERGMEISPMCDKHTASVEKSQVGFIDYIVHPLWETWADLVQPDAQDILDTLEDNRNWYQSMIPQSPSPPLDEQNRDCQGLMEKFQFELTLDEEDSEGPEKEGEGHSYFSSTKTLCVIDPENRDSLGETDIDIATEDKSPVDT
Sequence of UniProt O94782 (O94782 whole entry, looked up): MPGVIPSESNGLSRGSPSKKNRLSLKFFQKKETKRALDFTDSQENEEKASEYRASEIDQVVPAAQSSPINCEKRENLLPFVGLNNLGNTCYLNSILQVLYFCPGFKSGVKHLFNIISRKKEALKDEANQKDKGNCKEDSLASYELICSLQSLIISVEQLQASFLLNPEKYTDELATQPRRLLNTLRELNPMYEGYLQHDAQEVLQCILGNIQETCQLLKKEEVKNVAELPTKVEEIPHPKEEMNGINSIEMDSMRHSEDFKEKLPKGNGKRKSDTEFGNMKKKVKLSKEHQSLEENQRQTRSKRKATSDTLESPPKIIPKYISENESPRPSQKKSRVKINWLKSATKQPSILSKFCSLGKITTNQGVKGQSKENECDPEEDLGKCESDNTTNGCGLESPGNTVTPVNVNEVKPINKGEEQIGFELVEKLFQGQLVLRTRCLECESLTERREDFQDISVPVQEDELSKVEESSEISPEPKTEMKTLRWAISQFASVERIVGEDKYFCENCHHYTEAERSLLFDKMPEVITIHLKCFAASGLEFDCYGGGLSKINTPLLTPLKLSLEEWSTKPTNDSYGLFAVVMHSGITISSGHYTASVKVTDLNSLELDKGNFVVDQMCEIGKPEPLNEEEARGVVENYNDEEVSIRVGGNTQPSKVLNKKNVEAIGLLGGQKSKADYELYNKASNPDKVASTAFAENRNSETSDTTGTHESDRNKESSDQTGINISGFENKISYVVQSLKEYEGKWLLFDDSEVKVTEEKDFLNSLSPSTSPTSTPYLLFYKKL
Sequence of UniProt P04150 (P04150 whole entry, looked up, the tested form may be a part): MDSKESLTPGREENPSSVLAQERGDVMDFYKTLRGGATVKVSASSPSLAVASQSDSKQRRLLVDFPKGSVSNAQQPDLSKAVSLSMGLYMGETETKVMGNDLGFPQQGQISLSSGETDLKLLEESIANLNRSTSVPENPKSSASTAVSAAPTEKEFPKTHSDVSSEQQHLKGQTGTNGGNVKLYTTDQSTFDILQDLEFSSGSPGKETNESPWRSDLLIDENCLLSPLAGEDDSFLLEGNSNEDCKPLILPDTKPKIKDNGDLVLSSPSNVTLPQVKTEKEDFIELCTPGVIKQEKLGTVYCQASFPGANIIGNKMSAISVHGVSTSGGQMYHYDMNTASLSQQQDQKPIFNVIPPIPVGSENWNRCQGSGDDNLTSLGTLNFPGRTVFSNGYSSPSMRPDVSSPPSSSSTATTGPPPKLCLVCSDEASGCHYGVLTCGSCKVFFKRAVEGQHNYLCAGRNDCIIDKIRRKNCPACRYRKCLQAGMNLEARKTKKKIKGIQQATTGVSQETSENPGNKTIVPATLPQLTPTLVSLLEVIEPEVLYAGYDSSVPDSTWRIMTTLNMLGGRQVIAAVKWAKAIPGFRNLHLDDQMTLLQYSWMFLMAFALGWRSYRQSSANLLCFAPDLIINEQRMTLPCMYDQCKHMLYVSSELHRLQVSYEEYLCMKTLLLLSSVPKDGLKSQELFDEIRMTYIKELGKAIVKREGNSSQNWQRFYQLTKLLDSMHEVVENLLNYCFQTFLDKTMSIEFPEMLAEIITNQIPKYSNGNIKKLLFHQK
Sequence of UniProt P33261 (P33261 whole entry, looked up): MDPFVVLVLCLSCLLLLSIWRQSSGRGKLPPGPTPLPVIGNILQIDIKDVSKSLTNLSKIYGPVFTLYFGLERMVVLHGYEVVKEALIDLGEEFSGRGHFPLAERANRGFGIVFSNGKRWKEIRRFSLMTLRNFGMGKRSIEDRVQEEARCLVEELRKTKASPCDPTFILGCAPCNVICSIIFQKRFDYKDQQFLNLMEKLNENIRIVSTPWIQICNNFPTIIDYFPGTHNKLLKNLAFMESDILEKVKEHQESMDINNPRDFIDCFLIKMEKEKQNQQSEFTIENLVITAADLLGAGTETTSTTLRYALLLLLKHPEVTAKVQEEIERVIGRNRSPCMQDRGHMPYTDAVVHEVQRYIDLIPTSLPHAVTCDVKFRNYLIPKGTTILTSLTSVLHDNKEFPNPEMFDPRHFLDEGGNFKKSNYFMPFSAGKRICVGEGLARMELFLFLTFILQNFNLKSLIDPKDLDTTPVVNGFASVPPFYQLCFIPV
Sequence of UniProt Q9NUW8 (Q9NUW8 whole entry, looked up): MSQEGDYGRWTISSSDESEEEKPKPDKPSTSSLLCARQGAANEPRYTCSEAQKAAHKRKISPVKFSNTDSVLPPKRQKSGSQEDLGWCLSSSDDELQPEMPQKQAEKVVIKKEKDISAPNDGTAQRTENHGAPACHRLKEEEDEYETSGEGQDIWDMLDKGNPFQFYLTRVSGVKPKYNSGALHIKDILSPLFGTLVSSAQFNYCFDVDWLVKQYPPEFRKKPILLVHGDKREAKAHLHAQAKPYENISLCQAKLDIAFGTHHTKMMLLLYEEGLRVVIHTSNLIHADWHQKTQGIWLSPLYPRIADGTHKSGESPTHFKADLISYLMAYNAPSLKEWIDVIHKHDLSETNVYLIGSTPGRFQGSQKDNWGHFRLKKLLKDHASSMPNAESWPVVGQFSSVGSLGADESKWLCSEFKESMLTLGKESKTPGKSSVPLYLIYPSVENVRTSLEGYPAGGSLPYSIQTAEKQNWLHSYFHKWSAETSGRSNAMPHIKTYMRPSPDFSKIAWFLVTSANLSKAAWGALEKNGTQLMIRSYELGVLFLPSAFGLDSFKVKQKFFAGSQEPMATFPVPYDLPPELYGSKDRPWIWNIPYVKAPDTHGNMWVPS
Sequence of UniProt P08684 (P08684 whole entry, looked up): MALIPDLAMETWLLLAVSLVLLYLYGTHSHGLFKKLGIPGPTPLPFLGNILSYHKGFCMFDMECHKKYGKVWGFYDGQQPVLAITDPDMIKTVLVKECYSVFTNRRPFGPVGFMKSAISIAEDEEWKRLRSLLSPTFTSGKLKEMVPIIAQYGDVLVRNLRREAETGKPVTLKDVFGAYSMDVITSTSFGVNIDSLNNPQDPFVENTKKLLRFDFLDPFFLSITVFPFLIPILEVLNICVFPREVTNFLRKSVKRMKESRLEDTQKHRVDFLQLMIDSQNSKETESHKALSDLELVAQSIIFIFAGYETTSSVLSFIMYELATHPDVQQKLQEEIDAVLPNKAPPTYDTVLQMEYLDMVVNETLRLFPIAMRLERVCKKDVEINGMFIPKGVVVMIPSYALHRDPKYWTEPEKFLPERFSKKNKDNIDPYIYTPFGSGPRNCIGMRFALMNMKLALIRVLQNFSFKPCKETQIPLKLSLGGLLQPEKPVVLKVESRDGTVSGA

**Q.** What does the source list for `COc1ccccc1CNc1ncncc1-c1ccccc1C`?
**A.** activity change, negative = inhibition [1]: inconclusive: 45.8% [activator]; Potency [2]: inactive: > 46 µM; Potency [3]: inconclusive [inhibitor, full curve]; Potency [4]: inconclusive [inhibitor, full curve]; Potency [5]: inactive

**Q.** For `c1cn(-c2ncnc3ccc(-c4ccoc4)cc23)cn1`, which activity change, negative = inhibition [1] is on record?
**A.** inconclusive: -51.1% [inhibitor]

**Q.** And the Potency [6]?
**A.** inactive

**Q.** What about the Potency [5] of the same molecule?
**A.** inconclusive [inhibitor, partial curve, poor fit]

**Q.** With `CCNc1ncc2nc(CCc3ccccc3)c(=O)n(-c3ccc(OC)cc3)c2n1` as the molecule, how does the activity change, negative = inhibition [1] read?
**A.** inconclusive: -50.6% [inhibitor]

**Q.** And the Potency [6]?
**A.** inconclusive [activator, single point]

**Q.** What about the activation [7] of the same molecule?
**A.** inactive: -1.93%

**Q.** And the Potency [5]?
**A.** inconclusive [inhibitor, single point]

**Q.** Which Potency [8] does the source give for `CNC(=O)Oc1ccc2c(c1)[C@@]1(C)CCN(C)[C@@H]1N2C` here?
**A.** inconclusive [decreasing]

**Q.** What about the Potency [9] of the same molecule?
**A.** inconclusive [activator, partial curve, poor fit] and inactive

**Q.** And the Potency [6]?
**A.** inconclusive [inhibitor, single point]

**Q.** What about the Potency [10] of the same molecule?
**A.** inactive

**Q.** What about the Potency [11] of the same molecule?
**A.** inactive

**Q.** And the Potency [5]?
**A.** inconclusive [inhibitor, full curve]

**Q.** What does the source list for `O=C(c1cc(C(F)(F)F)cc(C(F)(F)F)c1)N1CCC2(CC1)CN(Cc1ccccc1)C2`?
**A.** Potency [8]: inactive; activity change, negative = inhibition [12]: inconclusive: -42.8% [inhibitor]; Potency [5]: inconclusive [inhibitor, single point]

**Q.** For `COc1ccc(-n2c(=O)c(-c3ccc(F)cc3)nc3cncnc32)cc1`, which Potency [8] is on record?
**A.** inactive

**Q.** And the Potency [5]?
**A.** inactive

**Q.** For `COc1ccc2[nH]cc(CCNc3cc(-c4ccoc4)ncn3)c2c1`, which Potency [8] is on record?
**A.** active: 0.631 µM

**Q.** What about the activity change, negative = inhibition [12] of the same molecule?
**A.** inactive: 2.58%

**Q.** What about the Potency [5] of the same molecule?
**A.** inconclusive [inhibitor, single point]

**Q.** What does the source list for `Cc1ccc(C(=O)Cn2c3c(sc2=N)CCCC3)cc1`?
**A.** Potency [8]: active: 1 µM; Potency [13]: inactive; Potency [14]: inconclusive [inhibitor, full curve]; Potency [5]: inconclusive [inhibitor, single point]

**Q.** For `COc1ccccc1N1CCN(CCn2c(=O)[nH]c3c([nH]c4ccccc43)c2=O)CC1`, which Potency [8] is on record?
**A.** inconclusive [decreasing]

**Q.** What about the Potency [6] of the same molecule?
**A.** inactive

**Q.** What about the Potency [14] of the same molecule?
**A.** inconclusive [inhibitor, partial curve, poor fit]

**Q.** What about the Potency [5] of the same molecule?
**A.** inactive
